In the test the test system is Colletotrichum orbiculare. As to conditions: 250 ppm, sprayed 2.5 ml/pot before inoculation; evaluated 6-10 days after inoculation.

Molecules are shown by their SMILES.

For the molecule `CCn1c(-c2c(F)cc(OC)cc2F)c(-c2cc(F)c(F)cc2F)cc(Cl)c1=O` [Compound 637], the “Test H (control value class, anthracnose on cucumber)” value (from here on “Test H”) is reported as “H (H shows more than 50% of control values)”. On to `CCn1c(-c2c(F)cc(OC)cc2F)c(-c2cc(F)c(F)cc2F)ccc1=O` [Compound 638], for which the “Test H” value is reported as “H (H shows more than 50% of control values)”. The entry for `Cn1c(-c2c(F)cc(F)cc2F)c(-c2cc(F)c(F)cc2F)ccc1=O` [Compound 639] is “H (H shows more than 50% of control values)”. `CCn1c(-c2c(F)cc(OC)cc2F)c(-c2cccc(OC)c2Cl)cc(Cl)c1=O` [Compound 640]: the “Test H” value is listed as “H (H shows more than 50% of control values)”.

Consider `CCOc1cc(F)c(-c2c(-c3cccc(OC)c3Cl)cc(Cl)c(=O)n2CC)c(F)c1` [Compound 641], for which the “Test H” value is “H (H shows more than 50% of control values)”. Turning to `CCOc1cc(F)c(-c2c(-c3cccc(OC)c3Cl)cc(Br)c(=O)n2CC)c(F)c1` [Compound 643], the “Test H” value is recorded as “H (H shows more than 50% of control values)”. As to `CCn1c(-c2c(F)cc(OC)cc2F)c(-c2cccc(OC)c2Cl)cc(C)c1=O` [Compound 644], the “Test H” value is reported as “H (H shows more than 50% of control values)”. In the case of `CCOc1cc(F)c(-c2c(-c3cccc(OC)c3Cl)cc(C)c(=O)n2CC)c(F)c1` [Compound 645], the “Test H” value is “H (H shows more than 50% of control values)”. The entry for `Cn1c(-c2c(F)cccc2F)c(-c2ccc(F)cc2F)cc(Cl)c1=O` [Compound 646] is “H (H shows more than 50% of control values)”; for `O=c1ccc(-c2ccc(F)cc2F)c(-c2c(F)cccc2F)n1CC(F)F` [Compound 647] it is “H (H shows more than 50% of control values)”. Take `CCN1C(=O)CCC(c2ccccc2Br)=C1c1c(F)cc(F)cc1F` [Compound 650]: the “Test H” value is “H (H shows more than 50% of control values)”. For the molecule `CCn1c(-c2c(F)cc(F)cc2F)c(-c2ccccc2Br)ccc1=O` [Compound 651], the “Test H” value is on record as “H (H shows more than 50% of control values)”. Regarding `CCn1c(-c2c(F)cc(F)cc2F)c(-c2ccccc2Br)cc(Cl)c1=O` [Compound 652], the “Test H” value was “H (H shows more than 50% of control values)”. Under `COc1cc(F)c(-c2c(-c3cc(F)c(F)cc3F)ccc(=O)n2C)c(F)c1` [Compound 654] stands “H (H shows more than 50% of control values)”; under `COc1cc(F)c(-c2c(-c3cc(F)c(F)cc3F)cc(Cl)c(=O)n2C)c(F)c1` [Compound 655], “H (H shows more than 50% of control values)”; under `CCn1c(-c2c(F)cc(OC)cc2F)c(-c2cccc(F)c2Cl)cc(Br)c1=O` [Compound 656], “H (H shows more than 50% of control values)”.

As to `CCOc1cc(F)c(-c2c(-c3cccc(F)c3Cl)ccc(=O)n2CC)c(F)c1` [Compound 657], the “Test H” value is reported as “H (H shows more than 50% of control values)”. The entry for `CCOc1cc(F)c(-c2c(-c3cccc(F)c3Cl)cc(Cl)c(=O)n2CC)c(F)c1` [Compound 658] is “H (H shows more than 50% of control values)”; for `CCOc1cc(F)c(-c2c(-c3cccc(F)c3Cl)cc(Br)c(=O)n2CC)c(F)c1` [Compound 659] it is “H (H shows more than 50% of control values)”; for `CCOc1cc(F)c(-c2c(-c3cccc(F)c3Cl)cc(C)c(=O)n2CC)c(F)c1` [Compound 660] it is “H (H shows more than 50% of control values)”. Under `COc1cccc(-c2ccc(=O)n(C)c2-c2c(F)cc(F)cc2F)c1Cl` [Compound 661] stands “H (H shows more than 50% of control values)”.
